Sequences with one replicate were seen in a single cluster, so their values are uncertain.
system: ATP; assay: switch fluorescence ratio, 500 uM ATP over buffer (Cy3 cluster intensity, sum of 5 cycles each) (fold (ratio)); higher = stronger signal-on switching upon ATP binding; sequences stand for … in TCGTCGGCAGCGTCAGATGTGTATAAGAGACAGTTTTTTTTTTTTTTTTTTTTTTTTT…TC; settings: aptamer strand: ATP DNA aptamer (quencher-CACCTGGGGGAGTATTGCGGAGGAAGG + anchor), 100 nM annealed; ATP concentration: 500 uM; one replicate
Outline: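 Switching-strand clusters labelled with Cy3 on a modified Illumina MiSeq flow-cell were annealed to 100 nM quencher-labelled ATP aptamer, imaged in selection buffer, and re-imaged after 15 min with 500 uM ATP at 22 °C. This was done over five cycles with NaOH stripping and re-annealing in between. The fluorescence ratio is summed target-cycle over summed buffer-cycle Cy3 intensity per cluster, averaged per switch-domain sequence, excluding clusters outside 100-1000 RFU.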
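Also: ATP exposure 15 min at 22 °C before imaging.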

Sequence	switch fluorescence ratio
ACTGTGACCC	1.23
ACTGTGACG	1.05
ACTGTGAGGG	0.969
ACTGTGCAAC	1.2
ACTGTGGGTT	1.03
ACTTAACGTG	1.06
ACTTACGAC	1.45
ACTTACTGCT	1.13
ACTTAGCTCA	1.05
ACTTAGGTCG	1
ACTTATCCGC	1.76
ACTTATGGCC	1.02
ACTTATGTCC	1.05
ACTTCAACCT	1.09
ACTTCACAGT	1.31
ACTTCCCGAA	1.22
ACTTCGACAT	1.32
ACTTCGGCAA	4.03
ACTTCTCCAC	1.31
ACTTCTCCCA	1.26
ACTTCTTTTC	1.01
ACTTGACTT	1.13
ACTTGAGACT	1.03
ACTTGAGCCG	0.965
ACTTGAGCGA	1.02
ACTTGCCAGG	1.88

Sequence	switch fluorescence ratio
ACTTGCCATG	1.03
ACTTGCGTT	0.963
ACTTGCTACG	1.27
ACTTGTATCT	0.949
ACTTTAAGG	1.04
ACTTTAATTA	0.989
ACTTTCAAAC	1.09
ACTTTCAGGA	0.993
ACTTTCCCCA	1.16
ACTTTCCGTC	1.16
ACTTTCCTAA	0.999
ACTTTCGGAC	2.43
ACTTTGATGG	0.987
ACTTTGGGCT	0.991
ACTTTGGTCA	0.979
ACTTTGTAC	1.01
ACTTTTAGAT	1.04
ACTTTTTAGA	1.04
ACTTTTTGAA	1
AGAAAATAAA	1.05
AGAAAGCGC	1.03
AGAAAGGA	0.97
AGAAAGGAGG	0.981
AGAAATCAT	0.954
AGAAATGGTG	1.03
AGAAATGTAG	1.02

Sequence	switch fluorescence ratio
AGAACCGTTC	1.53
AGAACCTGTT	1.03
AGAACGTATC	1.09
AGAACTCTCA	0.991
AGAACTTATT	1
AGAAGAGAAT	1.05
AGAAGATCCC	1.03
AGAAGCCACT	0.974
AGAAGCTCAT	0.985
AGAAGCTCGT	1.01
AGAAGCTGCA	0.997
AGAAGGAAAT	1.01
AGAAGGCGGT	0.979
AGAAGGGACC	1.03
AGAAGGTGAA	1.11
AGAAGTTAC	1.12
AGAATCCATT	0.967
AGAATCCGCA	3.26
AGAATCGGAC	1.1
AGAATCGGTT	1
AGAATTATAG	1
AGAATTATTT	0.967
AGAATTGACT	0.972
AGAATTTAC	1.08
AGACAATGTG	1.05
AGACAATTGG	0.991

Sequence	switch fluorescence ratio
AGACAGGCAG	1.04
AGACAGTGCA	1.03
AGACAGTGGG	1.05
AGACATCTTG	0.89
AGACATTTGG	0.967
AGACCAAGTG	0.972
AGACCGAAGT	1.05
AGACCGGGTA	1.01
AGACGAAGGT	1.02
AGACGATTCC	1.05
AGACGGGA	1.01
AGACGGGCGC	0.998
AGACGGTATA	1.11
AGACGTAATA	1.67
AGACGTCGAA	1.01
AGACGTCGGA	0.955
AGACGTCTAC	0.992
AGACGTCTTT	0.999
AGACGTGCGC	1.05
AGACGTGCTT	0.952
AGACGTTTCC	1.16
AGACTGACTA	1.11
AGACTGCGA	0.982
